According to PubChem BioAssay AID1461 (National Center for Advancing Translational Sciences (NCATS), 2008):
In all, about 220,000 compounds went through this assay and about 2,300 (1%) were called active. This list was built around the results that the source calls inconclusive (neither active nor inactive); the mix of calls is not that of the screen. The call rests on the fitted dose curve; in most records, active means well fitted inhibition curve with a large enough effect; inconclusive means small, poorly fitted or top-dose-only effect, or effect the other way; inactive means no such curve, though single readings can be large or run the other way. Potencies of inconclusive entries are left out as doubtful fits.

Target: Neuropeptide S receptor (Homo sapiens) (UniProt Q6W5P4)
Sequence of UniProt Q6W5P4 (Q6W5P4 whole entry, looked up): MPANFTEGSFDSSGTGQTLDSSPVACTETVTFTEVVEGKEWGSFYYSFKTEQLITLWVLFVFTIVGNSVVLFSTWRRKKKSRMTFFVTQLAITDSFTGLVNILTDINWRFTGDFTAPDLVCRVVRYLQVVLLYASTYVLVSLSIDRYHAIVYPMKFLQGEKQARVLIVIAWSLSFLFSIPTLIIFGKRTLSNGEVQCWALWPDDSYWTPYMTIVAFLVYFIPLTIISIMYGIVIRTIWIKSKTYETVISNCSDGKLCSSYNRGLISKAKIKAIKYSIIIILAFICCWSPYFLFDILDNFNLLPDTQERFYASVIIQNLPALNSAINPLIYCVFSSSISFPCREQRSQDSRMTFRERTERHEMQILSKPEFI
Assay: qHTS Assay for Antagonists of the Neuropeptide S Receptor: cAMP Signal Transduction; further: nearly all actives have a fitted effect of over 50% in size
Conditions: CHO-NPSR cells, cAMP TR-FRET, antagonist mode; series mostly up to 38.3 µM
Potency means the concentration at half of the fitted maximal effect; tags describe the fitted curve by direction and shape.

Q: Which Potency does the source give for COC(=O)c1cc(-c2ccc(S(=O)(=O)N3CCCCC3)cc2)c(C(F)(F)F)s1 here?
A: The Potency was inconclusive [activator, single point].

Q: For COC(=O)Oc1nsnc1N1CCOCC1, which Potency is on record?
A: Its Potency is “inactive”.

Q: Which Potency does the source give for COc1ccccc1CN1C(=O)C(=O)N(Cc2cccc(C)c2)C1=O here?
A: Its Potency is “inactive”.

Q: How did the Potency turn out when COc1cc(SC)ccc1C(=O)NCCOc1c(C)cc(C)cc1C was run?
A: The Potency was inconclusive [inhibitor, single point].

Q: With Cc1cccc(C)c1N=C1NN=C(c2ccccc2F)CS1 as the compound, how does the Potency read?
A: Its Potency is inconclusive [inhibitor, single point].

Q: How did the Potency turn out when FC(F)(F)c1cc(CCN2C(=S)NC[C@@H]2CC2CCCCC2)cc(C(F)(F)F)c1 was run?
A: Its Potency is inconclusive [inhibitor, single point].

Q: O=[N+]([O-])c1cc(Br)cc(C=Nc2ccc3c(c2)OCO3)c1O was tested. Which Potency did it give?
A: Its Potency is inconclusive [activator, single point].

Q: For CCC(C)(C)n1nnnc1C(c1ccncc1)N1CCC(Cc2ccccc2)CC1 (stereo unspecified), which Potency is on record?
A: The Potency was inconclusive [inhibitor, single point].

Q: O=c1[nH]c2cc3c(cc2cc1CN(Cc1ccccc1)Cc1nnnn1Cc1ccco1)OCCO3 was tested. Which Potency did it give?
A: Its Potency is inconclusive [inhibitor, partial curve].

Q: How did the Potency turn out when S=c1[nH]nc(-c2ccco2)n1Cc1ccccc1 was run?
A: Its Potency is “inactive”.

Q: COC(=O)c1[nH]c2ccccc2c1NC(=O)CN1CCN(c2cccc(Cl)c2)CC1 was tested. Which Potency did it give?
A: Its Potency is inconclusive [inhibitor, partial curve, poor fit].

Q: With Cc1ccc(CSc2nnc(Nc3ccc(C)cc3)s2)cc1 as the compound, how does the Potency read?
A: Its Potency is “inactive”.

Q: For N#C/C(=C\c1ccncc1)c1nc2ccccc2c(=O)[nH]1, which Potency is on record?
A: The Potency was “inactive”.

Q: How did the Potency turn out when COC(=O)c1ccccc1SC(CC(=O)c1ccccc1)c1ccc(F)cc1 (stereo unspecified) was run?
A: Its Potency is “inactive”.

Q: How did the Potency turn out when NC(=S)Nc1cnc2ccccc2c1 was run?
A: Its Potency is inconclusive [inhibitor, single point].

Q: How did the Potency turn out when O=S(=O)(Nc1cc(Sc2cccc3cccnc23)c(O)c2ccccc12)c1ccccc1 was run?
A: Its Potency is “inactive”.

Q: With Nc1nc(-c2ccc3c(c2)NC(=O)CO3)cs1 as the compound, how does the Potency read?
A: The Potency was “inactive”.

Q: How did the Potency turn out when CC(C)(C)c1ccc(OCC(=O)N/N=C/C2CC=CCC2)cc1 (stereo unspecified) was run?
A: The Potency was “inactive”.

Q: Which Potency does the source give for Cc1ccc2c(c1)nnn2C1CCN(C(=O)C23CC4CC(CC(C4)C2)C3)CC1 here?
A: The Potency was inconclusive [inhibitor, partial curve].

Q: O=C(/C=C/c1ccc(S(=O)(=O)N2CCOCC2)cc1)N1CCN(c2ccc(F)cc2)CC1 was tested. Which Potency did it give?
A: The Potency was inconclusive [inhibitor, single point].

Q: For CCOC(=O)c1nnn2c1nc(N1CCN(c3ccccc3)CC1)c1ccccc12, which Potency is on record?
A: The Potency was inconclusive [activator, partial curve].

Q: How did the Potency turn out when N#Cc1nc(COc2ccccc2Cl)oc1NCc1ccc(F)cc1 was run?
A: The Potency was inconclusive [inhibitor, single point].

Q: For NNC1=N[C@H]2CS(=O)(=O)C[C@H]2S1, which Potency is on record?
A: Its Potency is inconclusive [activator, full curve, poor fit].

Q: With Cc1cc(N)c2cc(NC(=O)/C=C/c3ccccc3Cl)ccc2n1 as the compound, how does the Potency read?
A: Its Potency is inconclusive [activator, single point].

Q: For O=C(Oc1ccc(Cl)c2cccnc12)c1ccco1, which Potency is on record?
A: The Potency was active: 3.98 µM.

Q: With CCOC(=O)CC(=O)CSc1ccc2nnc(-c3cccc(F)c3)n2n1 as the compound, how does the Potency read?
A: Its Potency is “inactive”.

Q: For CCCCNC(=O)c1cc2c(=O)n3cccc(C)c3nc2n(Cc2ccccc2)c1=N, which Potency is on record?
A: The Potency was inconclusive [inhibitor, single point].

Q: How did the Potency turn out when O=C(NC1CCCC1)C(c1ccccc1)N(Cc1ccc2c(c1)OCO2)C(=O)Cc1cccs1 (stereo unspecified) was run?
A: Its Potency is “inactive”.

Q: For CCc1cccc(C)c1NC(=S)NCc1cccn1C, which Potency is on record?
A: The Potency was “inactive”.

Q: With C=CCn1c(SCC(=O)c2cccs2)nc2sc(C)cc2c1=O as the compound, how does the Potency read?
A: Its Potency is inconclusive [inhibitor, single point].

Q: Which Potency does the source give for O=C(C1=C[C@@H](c2ccc(Br)cc2)C[C@@H](OCc2ccc(CO)cc2)O1)N1CCN(Cc2ccccc2)CC1 here?
A: The Potency was inconclusive [activator, single point].

Q: For Cc1ccc(Cl)cc1N1CCN(C(=O)C2CCN(S(=O)(=O)c3cccnc3)CC2)CC1, which Potency is on record?
A: The Potency was inconclusive [inhibitor, single point].

Q: For CCOC(=O)c1c(NC(=O)CSc2nnc(-c3cccc(C)c3)n2CC)sc(C(C)=O)c1C, which Potency is on record?
A: The Potency was inconclusive [inhibitor, partial curve].

Q: How did the Potency turn out when O=C(CSc1ncc(C(F)(F)F)cc1Cl)N1CCN(S(=O)(=O)c2ccc(Cl)cc2)CC1 was run?
A: Its Potency is inconclusive [inhibitor, single point].

Q: For Cc1ccc(S(=O)(=O)N2CCCC2)cc1[N+](=O)[O-], which Potency is on record?
A: Its Potency is “inactive”.

Q: For CCOC(=O)Cc1csc(SCC(=O)c2c(N)n(CC(C)C)c(=O)n(C)c2=O)n1, which Potency is on record?
A: Its Potency is inconclusive [inhibitor, full curve, poor fit].

Q: How did the Potency turn out when CCCCC(=O)NC(c1ccc(OC)c(OC)c1)c1c(O)ccc2ccccc12 (stereo unspecified) was run?
A: The Potency was inconclusive [inhibitor, single point].

Q: Cc1cc(C(=O)COc2ncnc3sccc23)c(C)n1C1CC1 was tested. Which Potency did it give?
A: Its Potency is “inactive”.

Q: How did the Potency turn out when CC1CCN(C(=O)c2ccc(COc3ccccc3Cl)o2)CC1 was run?
A: The Potency was inconclusive [inhibitor, single point].

Q: For CN1c2ccccc2-c2nc3ccccc3n2C1c1ccccn1 (stereo unspecified), which Potency is on record?
A: The Potency was inconclusive [inhibitor, single point].

Q: For Cc1cc(C)c(-c2noc(C(=O)OC(C)(C)C)c2C(=O)OC(C)(C)C)c(C)c1, which Potency is on record?
A: The Potency was inconclusive [inhibitor, single point].

Q: C/C(Cl)=C\Cn1c(Nc2cccc(C)c2)nc2c1c(=O)n(C)c(=O)n2C was tested. Which Potency did it give?
A: Its Potency is inconclusive [inhibitor, single point].

Q: How did the Potency turn out when Cc1ccc(-c2cc(C(=O)NCc3cnn(C)c3)c3cc(Br)ccc3n2)cc1 was run?
A: Its Potency is inconclusive [inhibitor, single point].

Q: For Cc1ccc(S(=O)(=O)N/N=C/c2cc(Br)c(C)o2)cc1, which Potency is on record?
A: The Potency was “inactive”.

Q: How did the Potency turn out when CCOCC(=O)Nc1sc2c(c1C(=O)OCC)CCCC2 was run?
A: Its Potency is inconclusive [inhibitor, single point].

Q: With CC(=O)c1cc2c(cc1NC(=O)CN1CCN(c3cccc(C(F)(F)F)c3)CC1)OCO2 as the compound, how does the Potency read?
A: Its Potency is “inactive”.

Q: How did the Potency turn out when CC(/C=N/NC(=O)Cc1cc(=O)[nH][nH]1)=C\c1ccccc1 was run?
A: The Potency was inconclusive [inhibitor, partial curve, poor fit].

Q: How did the Potency turn out when Cc1cc(NC(=S)NC(=O)C2CC2)ccc1Br was run?
A: The Potency was inconclusive [inhibitor, single point].

Q: How did the Potency turn out when Cc1ccc(S(=O)(=O)n2nccc2-c2c(-c3ccc(Cl)cc3)noc2C)cc1 was run?
A: The Potency was inconclusive [activator, single point].

Q: For COc1ccc(NC(=O)/C=N/O)cc1, which Potency is on record?
A: Its Potency is “inactive”.

Q: How did the Potency turn out when CC(=O)C1=C(C)NC(SCC(=O)c2ccc(Cl)c(Cl)c2)=C(C#N)C1c1ccco1 (stereo unspecified) was run?
A: Its Potency is active: 10 µM.

Q: For Clc1ccc(Nc2nc(-c3cccs3)cs2)nc1, which Potency is on record?
A: Its Potency is inconclusive [inhibitor, partial curve].

Q: Which Potency does the source give for COc1ccc2nc(NC(=O)C3CCN(S(=O)(=O)c4cccs4)CC3)sc2c1 here?
A: The Potency was “inactive”.

Q: Which Potency does the source give for COc1ccc(/C(C)=N/NC(=O)CNC(=O)CCc2ccccc2)c(OC)c1 here?
A: Its Potency is “inactive”.

Q: How did the Potency turn out when Cc1ccc(NCc2nnc(SCC(=O)c3ccccc3)n2Cc2ccco2)c(C)c1 was run?
A: The Potency was inconclusive [inhibitor, single point].

Q: How did the Potency turn out when Cc1cc(C)c(NC(=O)CSc2nc(COc3ccccc3)nc3ccccc23)c(C)c1 was run?
A: Its Potency is inconclusive [inhibitor, single point].

Q: With COc1ccc(C2=NN(C(=O)c3cccs3)C(c3ccccc3O)C2)cc1 (stereo unspecified) as the compound, how does the Potency read?
A: Its Potency is active: 10 µM.

Q: Which Potency does the source give for N#Cc1ccc(N=c2ssnc2Cl)cc1 here?
A: The Potency was inconclusive [inhibitor, single point].

Q: Which Potency does the source give for CCO/C([O-])=N/c1sn[n+](C)c1C here?
A: The Potency was inconclusive [activator, single point].

Q: O=C(NCc1cccc(Cl)c1)c1cnn2c1NC(c1ccco1)CC2C(F)(F)F (stereo unspecified) was tested. Which Potency did it give?
A: The Potency was inconclusive [inhibitor, partial curve, poor fit].

Q: For CCOc1ccc(-c2nc(N)ncc2Oc2ccccc2Br)c(O)c1, which Potency is on record?
A: Its Potency is inconclusive [inhibitor, single point].

Q: With COc1ccccc1NC(=O)CN1CCN(c2ccccc2)CC1 as the compound, how does the Potency read?
A: Its Potency is “inactive”.

Q: With CCOC(=O)CNC(=O)Cc1ccc(OC)cc1 as the compound, how does the Potency read?
A: Its Potency is inconclusive [activator, single point].

Q: COc1ccc(Cn2nnnc2C(c2ccc3ncccc3c2)N2CCN(C3CCCCC3)CC2)cc1 (stereo unspecified) was tested. Which Potency did it give?
A: Its Potency is inconclusive [activator, partial curve].

Q: For CCN(CC(=O)Nc1ccc2c(c1)OCCO2)Cc1cc(=O)oc2c(C)c(C)ccc12, which Potency is on record?
A: The Potency was inconclusive [inhibitor, partial curve].

Q: Which Potency does the source give for CCn1c(=O)c2cc(C(=O)N(C)c3ccc(OC)cc3OC)sc2c2ccccc21 here?
A: Its Potency is inconclusive [activator, partial curve].

Q: For Oc1c(C=Nc2ccccc2Cl)[nH]c2ccccc12, which Potency is on record?
A: The Potency was “inactive”.

Q: Which Potency does the source give for CCCc1cc(C(=O)Nc2sc(C(C)=O)c(C)c2C(=O)OCC)no1 here?
A: The Potency was “inactive”.

Q: Cc1ccc(N2C(N)=C(C#N)C(c3ccsc3)C3=C2CC(C)(C)CC3=O)cc1 (stereo unspecified) was tested. Which Potency did it give?
A: Its Potency is inconclusive [inhibitor, partial curve].

Q: With COc1ccc(NC(=O)C(=O)NNC(=O)c2cccs2)cc1 as the compound, how does the Potency read?
A: The Potency was “inactive”.

Q: For COCC(C)NC(=O)c1ccc(-n2nc(C(F)(F)F)cc2-c2cccs2)cc1 (stereo unspecified), which Potency is on record?
A: The Potency was inconclusive [activator, partial curve, poor fit].
